Experimental findings from the supplement of paper PMC4604168 (melanoma cell lines) are described below.

Structures are written as SMILES. This is one part of the list. Most values come without repeats; read them as rough.

Among the test systems are MZ2-MEL; MeWo; RPMI7951; RVH-421; SkMel28; SkMel2; SkMel30; SkMel5; UACC257; UACC62.
Assay in all cases: cell count relative to DMSO control; melanoma cells; higher = more viable cells
Conditions in all cases: library dose: low library concentration; 72 h
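Note: cell number obtained by counting DAPI-stained nuclei in high-throughput microscope images with image analysis software, screen run in 1,536-well plates.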

Take `COc1cc([C@@H]2c3cc4c(cc3[C@@H](O[C@@H]3O[C@@H]5CO[C@@H](C)O[C@H]5[C@H](O)[C@H]3O)[C@H]3COC(=O)[C@H]23)OCO4)cc(OC)c1O` [etoposide] + NCC(=O)Nc1ccc(-n2nc(C(F)(F)F)cc2-c2ccc3c(ccc4ccccc43)c2)cc1 [OSU03012] (first compound 0.02 µM, partner dose 1 µM): the cell count came to 87.1% with MZ2-MEL; 62.9% with MeWo; 110% with RPMI7951; 92.8% in the experiment on RVH-421; 77.7% in the experiment on SkMel28; 62.6% with SkMel2. Also, the cell count in the experiment on SkMel30 turned out to be 50.5%; in the experiment on SkMel5, 93.4%; in the experiment with UACC257, 87.4%; in the experiment on UACC62 it was 83.3%.
Turning to `C[C@]1(O)C[C@@H](c2nc(-c3ccc4ccc(-c5ccccc5)nc4c3)c3c(N)nccn32)C1` + COc1ccc2c(c1)CCC1C2CCC2(C)C(NCCCCCCN3C(=O)C=CC3=O)CCC12 [U73122] (first compound 0.4 µM, partner dose 0.4 µM), the cell count in the experiment on MZ2-MEL came out at 95.9%; with MeWo it was 92.4%; with RPMI7951, 69.6%; in the experiment with RVH-421, 103%; with SkMel28, 88.4%; with SkMel2 it was 81.9%. In addition, the cell count in the experiment with SkMel30 came to 88%; in the experiment with SkMel5, 87.3%; with UACC257, 88.5%; in the experiment with UACC62, 104%.
Consider `COc1cc([C@@H]2c3cc4c(cc3[C@@H](O[C@@H]3O[C@@H]5CO[C@@H](C)O[C@H]5[C@H](O)[C@H]3O)[C@H]3COC(=O)[C@H]23)OCO4)cc(OC)c1O` [etoposide] + O=C(CCCCCCC(=O)Nc1ccccc1)NO [vorinostat] (first compound 0.02 µM, partner dose 0.08 µM), for which the cell count with MZ2-MEL is 91.3%; in the experiment on MeWo, 96%; in the experiment with RPMI7951 it was 97.7%; in the experiment on RVH-421 it was 91.1%; in the experiment with SkMel28, 69.6%; with SkMel2, 96.1%. The cell count in the experiment on SkMel30 worked out at 90.3%; in the experiment on SkMel5, 99.2%; in the experiment with UACC257, 83.1%; in the experiment with UACC62, 84.5%.
Regarding `CCN(CC)CCNC(=O)c1c(C)[nH]c(/C=C2\C(=O)Nc3ccc(F)cc32)c1C` [sunitinib] + CN(NC(=O)CC(=O)NN(C)C(=S)c1ccccc1)C(=S)c1ccccc1 [STA4783] (first compound 0.4 µM, partner dose 0.006 µM), the cell count was 102% in the experiment with MZ2-MEL; 89.3% with MeWo; 106% in the experiment on RPMI7951; 13.4% in the experiment with RVH-421; 69.5% in the experiment on SkMel28; 120% with SkMel2. In addition, the cell count in the experiment on SkMel30 came out at 87.4%; in the experiment with SkMel5, 86%; with UACC257, 95.8%; in the experiment with UACC62, 77.1%.
For `C[C@]1(O)C[C@@H](c2nc(-c3ccc4ccc(-c5ccccc5)nc4c3)c3c(N)nccn32)C1` + O=C1NC(=O)/C(=C/c2ccc(-c3ccc(F)cc3O)o2)S1 [AS252424] (first compound 0.4 µM, partner dose 1 µM), the cell count in the experiment on MZ2-MEL worked out at 95.5%; with MeWo, 91.3%; in the experiment on RPMI7951, 110%; with RVH-421, 113%; in the experiment with SkMel28, 88.2%; in the experiment with SkMel2, 81.5%. Moreover, the cell count in the experiment with SkMel30 came out at 87.6%; in the experiment on SkMel5, 111%; with UACC257, 89.4%; in the experiment with UACC62, 90.2%.
As to `COc1cc([C@@H]2c3cc4c(cc3[C@@H](O[C@@H]3O[C@@H]5CO[C@@H](C)O[C@H]5[C@H](O)[C@H]3O)[C@H]3COC(=O)[C@H]23)OCO4)cc(OC)c1O` [etoposide] + CC1(C)NC(=O)N(c2ccc([N+](=O)[O-])c(C(F)(F)F)c2)C1=O [nilutamide] (first compound 0.02 µM, partner dose 1 µM), the cell count in the experiment with MZ2-MEL stood at 86.8%; with MeWo, 93.1%; with RPMI7951, 107%; in the experiment with RVH-421, 106%; with SkMel28, 91.3%; in the experiment with SkMel2, 100%. Besides, the cell count with SkMel30 is 112%; in the experiment with SkMel5 it was 83.1%; in the experiment on UACC257 it was 85.8%; in the experiment on UACC62, 74.3%.
On to `COc1cc([C@@H]2c3cc4c(cc3[C@@H](O[C@@H]3O[C@@H]5CO[C@@H](C)O[C@H]5[C@H](O)[C@H]3O)[C@H]3COC(=O)[C@H]23)OCO4)cc(OC)c1O` [etoposide] + CC(C)CCN1c2nc(Nc3cc(F)c(O)c(F)c3)ncc2N(C)C(=O)C1C [BID1870] (first compound 0.02 µM, partner dose 0.2 µM), for which the cell count was determined as 95.8% in the experiment on MZ2-MEL; 97.7% with MeWo; 102% in the experiment with RPMI7951; 109% with RVH-421; 86.4% with SkMel28; 88% in the experiment on SkMel2. The cell count turned out to be 80% in the experiment with SkMel30, 86.8% in the experiment on SkMel5, 79.3% in the experiment on UACC257 and 76.2% with UACC62.
With `COc1cc([C@@H]2c3cc4c(cc3[C@@H](O[C@@H]3O[C@@H]5CO[C@@H](C)O[C@H]5[C@H](O)[C@H]3O)[C@H]3COC(=O)[C@H]23)OCO4)cc(OC)c1O` [etoposide] + COc1cc(Nc2ncc(F)c(Nc3ccc4c(n3)NC(=O)C(C)(C)O4)n2)cc(OC)c1OC [Tamatinib] (first compound 0.02 µM, partner dose 0.4 µM), the cell count in the experiment with MZ2-MEL worked out at 86.6%; in the experiment on MeWo, 79%; with RPMI7951, 89.3%; in the experiment on RVH-421, 77.1%; in the experiment with SkMel28, 77.1%; in the experiment with SkMel2, 85%. Besides, the cell count was 97.3% in the experiment with SkMel30, 90.4% in the experiment with SkMel5, 50.4% in the experiment on UACC257 and 71.2% in the experiment with UACC62.
As to `C[C@]1(O)C[C@@H](c2nc(-c3ccc4ccc(-c5ccccc5)nc4c3)c3c(N)nccn32)C1` + O=C(O)c1ccc(-c2c[nH]c3ncc(-c4ccccc4)cc23)cc1C1CCCC1 [GSK650394] (first compound 0.4 µM, partner dose 0.16 µM), the cell count in the experiment with MZ2-MEL came out at 89.2%; with MeWo, 92.6%; in the experiment on RPMI7951, 113%; in the experiment on RVH-421 it was 114%; with SkMel28, 108%; in the experiment on SkMel2 it was 86.3%. The cell count in the experiment on SkMel30 is 97.5%; in the experiment on SkMel5 it was 79.5%; in the experiment with UACC257, 88.7%; with UACC62, 83.7%.
With `Cn1cnc2c(F)c(Nc3ccc(Br)cc3Cl)c(C(=O)NOCCO)cc21` [selumetinib] + CN(C)S(=O)(=O)c1ccc2c(c1)/C(=C/c1cc3c([nH]1)CCCC3)C(=O)N2 [SU6656] (first compound 0.015 µM, partner dose 0.4 µM), the cell count stood at 73.3% in the experiment with MZ2-MEL; 88.9% in the experiment on MeWo; 103% with RPMI7951; 63.8% with RVH-421; 80.4% with SkMel28; 67.9% in the experiment on SkMel2. The cell count amounted to 70.9% in the experiment with SkMel30, 91.3% in the experiment on SkMel5, 87.5% in the experiment with UACC257 and 78.4% with UACC62.
For the compound `CCN(CC)CCNC(=O)c1c(C)[nH]c(/C=C2\C(=O)Nc3ccc(F)cc32)c1C` [sunitinib] + CCCCCCCCCCCC1=C(O)C(=O)C=C(O)C1=O [Embelin] (first compound 0.4 µM, partner dose 1.2 µM), the cell count worked out at 106% with MZ2-MEL; 86.6% with MeWo; 118% in the experiment on RPMI7951; 119% in the experiment on RVH-421; 103% in the experiment with SkMel28; 118% with SkMel2. Besides, the cell count with SkMel30 was 79%; in the experiment with SkMel5 it was 106%; with UACC257, 96.5%; with UACC62 it was 84.5%.
